Data published in PMC4336329 (PLoS ONE, 2015).
Among all 310,000 compounds or so, about 2,200 (0.71%) showed an effect of 50% or more. The effect is printed as a negative number. The list shows a part of the results.

Each molecule was assayed against human ether-à-go-go-related gene (hERG) potassium channel (human, UniProt Q12809) (assay: primary screen, population patch clamp on CHO cells stably expressing hERG).
Sequence of human ether-à-go-go-related gene (hERG) potassium channel (Q12809 whole entry, looked up): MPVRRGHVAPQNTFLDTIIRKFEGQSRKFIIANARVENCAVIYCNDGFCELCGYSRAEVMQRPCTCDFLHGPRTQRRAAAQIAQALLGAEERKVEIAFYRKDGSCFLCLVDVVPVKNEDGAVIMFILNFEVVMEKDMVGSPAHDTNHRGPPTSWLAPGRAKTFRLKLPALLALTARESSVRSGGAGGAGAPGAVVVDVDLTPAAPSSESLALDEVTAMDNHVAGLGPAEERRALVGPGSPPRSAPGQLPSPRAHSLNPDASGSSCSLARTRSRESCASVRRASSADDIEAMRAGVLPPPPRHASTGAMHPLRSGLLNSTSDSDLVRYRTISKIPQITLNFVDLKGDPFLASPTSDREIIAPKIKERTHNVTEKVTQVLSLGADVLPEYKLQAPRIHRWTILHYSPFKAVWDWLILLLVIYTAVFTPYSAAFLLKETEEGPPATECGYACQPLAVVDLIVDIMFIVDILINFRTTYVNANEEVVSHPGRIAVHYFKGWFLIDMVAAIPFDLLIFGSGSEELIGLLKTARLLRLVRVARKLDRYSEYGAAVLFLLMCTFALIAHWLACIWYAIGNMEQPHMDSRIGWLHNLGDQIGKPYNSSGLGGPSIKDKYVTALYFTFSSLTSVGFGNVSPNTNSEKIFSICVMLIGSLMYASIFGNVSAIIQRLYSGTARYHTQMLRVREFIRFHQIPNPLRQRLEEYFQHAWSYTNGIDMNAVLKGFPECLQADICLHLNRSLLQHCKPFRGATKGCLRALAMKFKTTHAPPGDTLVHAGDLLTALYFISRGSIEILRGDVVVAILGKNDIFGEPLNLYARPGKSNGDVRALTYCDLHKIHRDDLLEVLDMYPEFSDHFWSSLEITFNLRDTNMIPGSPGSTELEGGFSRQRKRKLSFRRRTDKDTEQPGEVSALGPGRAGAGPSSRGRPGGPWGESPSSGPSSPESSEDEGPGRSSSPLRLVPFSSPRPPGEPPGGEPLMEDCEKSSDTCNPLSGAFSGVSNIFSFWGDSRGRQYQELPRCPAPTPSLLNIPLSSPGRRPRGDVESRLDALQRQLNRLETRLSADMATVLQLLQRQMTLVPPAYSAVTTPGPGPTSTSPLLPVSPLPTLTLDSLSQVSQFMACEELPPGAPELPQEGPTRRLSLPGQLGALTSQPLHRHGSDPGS

Row | Compound | hERG current change (%, negative = inhibition) at 1uM
1 | Cc1noc(C)c1C(=O)N1CCC2(CC1)Oc1ccc(F)cc1C(=O)C21CC(c2ccc(Cl)cc2)=NO1 (stereo not drawn) | 17.4%
2 | COCCNC(=O)/C(C#N)=C/c1ccccc1Br | 3.84%
3 | Cc1cc2oc(=O)cc(CN3CCCCC3)c2cc1C(C)C | 5.7%
4 | O=C(NCc1cccs1)C1CCN(S(=O)(=O)c2ccc3c(c2)OCCO3)CC1 | 11.5%
5 | COc1ccc(CCNc2ncnc3[nH]ncc23)cc1OC | 17.6%
6 | CCN(CC)c1ccc(NC(=O)Cn2nnc(-c3cccc(OC)c3OC)n2)c(C)c1 | 7.99%
7 | COc1ccc(Cl)cc1NC(=O)CN(C)C(C)C(=O)NCC1CCCCC1 (stereo not drawn) | 9.96%
8 | Cc1ccc(OCc2cc(C(=O)NCc3cnn(-c4cccc(F)c4)c3)no2)cn1 | 16.3%
9 | Cn1c(CNc2cccc(Cl)c2)nnc1SCC#N | 8.75%
10 | O=C(Nc1nnc(-c2cccs2)o1)c1cccc(Oc2ccccc2)c1 | 8.86%
11 | CNC(=S)NNC(=O)COc1ccccc1C | 11.7%
12 | O=C(NCc1ccccc1)c1cnc2n(c1=O)CCS2 | 11.1%
13 | CCOc1ccccc1/C=N/OCC(=O)NCc1ccc(F)cc1 | 12%
14 | COc1cccc(F)c1C(=O)NC(=O)Nc1ccc2nc(C)oc2c1 | 5.11%
15 | O=C(CSc1nnc(CNC(=O)c2c(F)cccc2Cl)o1)Nc1ccc2c(c1)OCO2 | 8.96%
16 | Cc1ccc(C)c2c(SC(C)C(=O)NCc3ccco3)nc(-c3ccccc3)nc12 (stereo not drawn) | -71.2%
17 | COc1cc(C(=O)Nc2sc(C)c(C)c2C(=O)O)cc(OC)c1OC | 13.7%
18 | O=[N+]([O-])c1ccccc1/C=C/CN1CCSCC1 | 9.42%
19 | COc1ccc(-c2nn(-c3ccccc3)cc2CO)cc1 | 4.87%
20 | COc1ccccc1Oc1ccc(N2CC(C(=O)OCC(=O)c3ccccc3)CC2=O)cc1 (stereo not drawn) | 7.47%
21 | CCOC(=O)c1c(-c2ccccc2)csc1NC(=O)CSc1ccccc1 | -1.83%
22 | Cc1cc2oc(=O)cc(COC(=O)Cn3cnnn3)c2cc1C(C)C | 14.1%
23 | Cc1ccc(NS(=O)(=O)c2ccc(F)cc2)nc1 | 11%

Row | Compound | hERG current change (%, negative = inhibition) at 1uM
24 | CC1(C)CC(NNCCC#N)=CC(=[N+]2CCCC2)C1.[I-] | 13.2%
25 | O=C(NC1CCN(C(=S)NCc2ccco2)CC1)C1CCCCC1 | 16.1%
26 | Cc1c(NC(=S)NC(=O)c2ccc(-c3ccc(Cl)cc3)o2)cccc1C(=O)O | 10.2%
27 | COC(=O)c1cccc(NC(=O)CN2CCOCC2)c1 | 13.6%
28 | CCOC(=O)C1CCCN(S(=O)(=O)c2cc3c(cc2Cl)NC(=O)CO3)C1 (stereo not drawn) | -15.8%
29 | COc1cccc(OC)c1C(=O)NC(=S)Nc1ccc2oc(-c3ccncc3)nc2c1 | 9.55%
30 | C[C@H](NC(=O)Cc1ccccc1)C(=O)N1CCC2(CC1)NCCc1[nH]cnc12 | 11%
31 | CN(CCC#N)C(=O)COC(=O)c1ccc(Cl)cc1O | 10.6%
32 | CN(C(=O)COC(=O)COc1ccc(Cl)cc1)C1CCCCC1 | 3.65%
33 | CCOc1cc(NC(=S)NCC2CCCO2)c(OCC)cc1NC(=O)c1cccc(F)c1 (stereo not drawn) | 3.88%
34 | COc1ccc(C2C(Oc3ccccc3)C(=O)N2c2cc(C)ccc2C)cc1OC (stereo not drawn) | 0.848%
35 | CC(C)c1cc(C(=O)N2CCCC(Nc3ccc(F)c(F)c3)C2)nc(N)n1 (stereo not drawn) | 9.15%
36 | Cc1ccccc1NC(=O)c1snc2c(=O)[nH]cnc12 | 10%
37 | Cc1cccc(N(CC(=O)NC2CCCCC2)C(=O)CCCC(=O)Nc2ccccn2)c1C | -6.88%
38 | CC(C)c1ccc(N2C(=NC(=O)C3CC3)SC3CS(=O)(=O)CC32)cc1 (stereo not drawn) | 5.91%
39 | CSc1ccc(/C=C/C(=O)OCC(=O)N2CCc3ccccc32)cc1 | 7.47%
40 | Cl.N=c1sc2c(n1Cc1ccccc1)CCCC2 | -5.2%
41 | CCC[C@H](CN[C@@H](CNC)[C@H](C)O)NCCc1ccc(OC)cc1 | -0.853%
42 | O=C(CCN1C(=O)c2cccc3cccc(c23)C1=O)NC1CCS(=O)(=O)C1 (stereo not drawn) | 11.2%
43 | CCOc1cc(S(=O)(=O)NCCc2ccc(OC)c(OC)c2)c(OCC)cc1-n1cnnn1 | 9.11%
44 | O=Cc1ccc(Oc2ccc(F)cc2)nc1 | 6.3%
45 | Cc1ccc2nc(-c3ccc(NC(=O)CN4C(=O)c5ccccc5C4=O)cc3)sc2c1 | 9.43%
46 | O=C(c1ccccc1F)N1CCN(c2ccc([N+](=O)[O-])c3cccnc23)CC1 | -13.2%

Row | Compound | hERG current change (%, negative = inhibition) at 1uM
47 | CCOC(=O)c1c(NC(=O)CSc2nnc(-c3cccnc3)o2)sc(C(C)=O)c1C | -3.71%
48 | Cc1[nH]nc2c1C(c1ccc(F)cc1)C(C#N)=C(N)O2 (stereo not drawn) | -1.76%
49 | O=C(CSc1nnc(Cc2ccccc2)n1Cc1ccco1)NC1CCCC1 | 4.68%
50 | COc1ccc(S(=O)(=O)NCc2nc3nc(C)cc(C)n3n2)cc1OC | 10.1%
51 | S=c1nc[nH]c2c1ncn2C1CCCC1 | 12.8%
52 | C=CCc1cccc(C2Nc3ccccc3C(=O)N2O)c1O (stereo not drawn) | 1.9%
53 | C=CCNCCOc1cccc(Br)c1 | 8.96%
54 | CCC(=O)N(Cc1cc2cc(OC)ccc2[nH]c1=O)c1cccc(C)c1 | -2.81%
55 | O=[N+]([O-])c1cccc(-n2nnnc2CN2CCCCCC2)c1 | 4.67%
56 | Cc1nn(Cc2ccccc2)c2c1C(c1cccc(Cl)c1)C(C#N)=C(N)O2 (stereo not drawn) | 4.75%
57 | COc1ccccc1NC(=O)Nc1sccc1-c1nc2ccccc2s1 | 18.2%
58 | c1ccc(-c2csc3ncnc(N4CCOCC4)c23)cc1 | 4.81%
59 | COc1ccc(/C=C/C(=O)NCc2c(C)nn(C)c2C)cc1COc1ccc(Br)cc1 | 2.25%
60 | CCOc1cc(/C=C2\SC(=Nc3ccc(CC)cc3)NC2=O)ccc1OCC(=O)O | 14.9%
61 | O=C(Nc1nc2cc3c(cc2s1)OCCO3)c1cccs1 | 7.82%
62 | O=C(NCNC(=O)c1ccccc1)c1ccccc1 | 16.5%
63 | CCOc1ccc(S(=O)(=O)Nc2ccccc2C(=O)Nc2ccccc2N2CCOCC2)cc1 | -0.389%
64 | CC(C)CC(=O)Nc1nnc(SCC(=O)Nc2nccs2)s1 | 10%
65 | CCOC(=O)c1[nH]cnc1C(=O)NC(C)C | 6.42%
66 | C[n+]1c2ccccc2nc2ccc(NCCO)cc21.[O-][Cl+3]([O-])([O-])[O-] | 17.2%
67 | Cn1c(Cn2c(=O)sc3ccccc32)nnc1SCC(=O)NCc1ccccc1Cl | -3.13%
68 | C[C@@H](C(=O)NCc1ccccn1)[C@H]1C[C@]1(C)[C@H](NC(=O)OCc1ccccc1)c1ccccc1 | 12.8%
69 | C/C(=N\NC(=O)Cc1ccc([N+](=O)[O-])cc1)c1cccnc1 | 11.1%

Row | Compound | hERG current change (%, negative = inhibition) at 1uM
70 | Cc1ccc(C(=O)C(C)Oc2cccc(NC(=O)c3ccco3)c2)cc1 (stereo not drawn) | 10.7%
71 | CC12CCC(=O)N1C(C(=O)N1CCN(S(=O)(=O)c3ccccc3F)CC1)CS2 (stereo not drawn) | -18.5%
72 | COc1ccc(NC(=O)CC2SC(N3CCOCC3)=NC2=O)cc1OC (stereo not drawn) | 10.2%
73 | CCN=C1SC(C(N)=O)CC(=O)N1CC (stereo not drawn) | 10.5%
74 | Cc1ccc(S(=O)(=O)N2CCC(=O)N(CCOC(=O)Nc3cc(C)cc(C)c3)CC2)cc1 | -0.244%
75 | O=C(NCC1CCCO1)c1cccc(C(=O)NCC2CCCO2)c1 (stereo not drawn) | 8.7%
76 | c1ccc(-c2cnnn2-c2ccccc2)cc1 | 16%
77 | CCN(CC)S(=O)(=O)c1cc(NC(=O)c2ccc(Br)s2)ccc1C | 15.2%
78 | C=CCn1c(SCC(=O)Nc2cccc3ccccc23)nnc1-c1cnccn1 | -4.07%
79 | Cc1onc(-c2ccccc2Cl)c1C(=O)NCc1nc(-c2ccccc2)no1 | 2.49%
80 | COc1ccc(NC(=O)CN2C(=O)N(C)Cc3ccccc32)c(C)c1 | 6.65%
81 | CC1(C)CC(=O)c2c(O)c(-c3ccccc3)c(=O)n(-c3ccccc3)c2C1 | 3.77%
82 | CP(=O)(O)CCCN.Cl | 11.9%
83 | CN(C)CCNC(=O)/C(=C/c1ccc(-c2ccc(Cl)cc2)o1)NC(=O)c1ccccc1 | -82%
84 | C=CCN(CC=C)C(=O)Nc1cc(OC)ccc1OC | 9.91%
85 | Cc1nonc1NC(=O)CSc1cn[nH]n1 | 12.5%
86 | Cc1sc2nc(-c3cccs3)oc(=O)c2c1C | 17.3%
87 | CCOCCCn1c(SCC(=O)NCc2ccco2)nc2c(sc3ccccc32)c1=O | 3.64%
88 | CCOc1ccccc1NC(=O)CC1Nc2cc(C)c(C)cc2NC1=O (stereo not drawn) | 0.117%
89 | Cc1ccc(SC(C)c2nc(-c3ccncc3)no2)cc1 (stereo not drawn) | -6.77%
90 | O=C(Cc1ccccc1)Nn1c(-c2ccccc2F)nc2ccccc2c1=O | 11.4%
